Reference: PubChem BioAssay (NCATS)
“And” between values parts separate entries of the source, which are not always exact repeats. Equal entries are not always repeated. The shares of active, inactive and inconclusive entries below differ from those in the screen. Where the call is inconclusive, the potency comes from a doubtful curve fit. The source made the active and inactive calls. The call rests on the fitted dose curve; in most records, active means well fitted inhibition curve with a large enough effect; inconclusive means small, poorly fitted or top-dose-only effect, or another doubt; inactive means no such curve, though single readings can be large or run the other way.
Potency means the concentration at half of the fitted maximal effect; tags describe the fitted curve by direction and shape.

Each compound was assayed against DNA polymerase eta (Homo sapiens) (UniProt Q9Y253) (assay: qHTS for Inhibitors of Polymerase Eta: Confirmatory Assay for Cherry-picked Compounds (AID 720502)). Conditions: Pol eta primer extension, TAMRA/BHQ fluorescence, 10 min.
UniProt Q9Y253, sequence (Q9Y253 whole entry, looked up): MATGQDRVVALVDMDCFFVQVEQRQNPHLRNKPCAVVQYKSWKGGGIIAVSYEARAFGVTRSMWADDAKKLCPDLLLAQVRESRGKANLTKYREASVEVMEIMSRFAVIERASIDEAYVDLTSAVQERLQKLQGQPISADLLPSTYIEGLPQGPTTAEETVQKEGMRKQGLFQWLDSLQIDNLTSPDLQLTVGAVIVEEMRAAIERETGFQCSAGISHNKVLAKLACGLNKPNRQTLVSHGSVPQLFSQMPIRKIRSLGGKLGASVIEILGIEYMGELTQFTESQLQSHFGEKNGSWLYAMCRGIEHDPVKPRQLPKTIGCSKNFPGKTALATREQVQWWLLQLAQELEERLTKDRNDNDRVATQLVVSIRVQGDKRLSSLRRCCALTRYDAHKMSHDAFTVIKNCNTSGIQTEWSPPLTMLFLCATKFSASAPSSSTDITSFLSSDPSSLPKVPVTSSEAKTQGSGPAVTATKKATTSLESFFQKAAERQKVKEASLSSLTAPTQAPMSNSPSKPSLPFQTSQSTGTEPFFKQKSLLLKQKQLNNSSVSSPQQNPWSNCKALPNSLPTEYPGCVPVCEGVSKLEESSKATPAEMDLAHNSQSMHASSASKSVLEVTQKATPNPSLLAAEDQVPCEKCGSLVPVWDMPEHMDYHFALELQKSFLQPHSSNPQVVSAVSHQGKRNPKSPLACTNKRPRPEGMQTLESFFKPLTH
Procedure, shortened: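 Strand-displacement fluorescence (525 nm excitation, 598 nm emission) was read kinetically at 0 and 10 min after adding 50 nM final TAMRA-reporter/BHQ-2-template substrate. Beforehand, 10 nM Pol eta had been exposed to compound for 15 min at room temperature.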
With `Nc1ccc(C(CC(=O)O)n2cccc2)cc1` (stereo unspecified) the Potency was active: 33.8 µM.
`CCNc1nc(NCC)n2c(SCC(=O)Nc3ccc(OC(F)F)cc3)nnc2n1` was tested, and the Potency was inconclusive: 75.7 µM [inhibitor, single point].
For `COc1ccc(NC(=O)N/C=C/c2ccco2)cc1`, the Potency was inconclusive: 84.9 µM [inhibitor, single point].
With `C=CCOCCN1C(=O)C2C3C=CC(C2C1=O)C1C2C(=O)N(CCOCC=C)C(=O)C2C31` (stereo unspecified) the Potency was active: 67.5 µM.
In the case of `O=C(CCN1C(=O)/C(=C\C=C\c2ccccc2)SC1=S)Nc1cccc(C(=O)O)c1`, the Potency is reported as active: 53.6 µM.
In the case of `COc1cc2c(cc1OC)-c1cc(Nc3ccc(C(=O)O)cc3)nc(=O)n1CC2`, the Potency is reported as inconclusive: 84.9 µM [inhibitor, single point].
For `Cc1csc(N=Cc2ccc([N+](=O)[O-])o2)n1`, the Potency was inconclusive: 84.9 µM [inhibitor, single point].
`Cc1oc2c(c1C(=O)Nc1cccc(C(=O)O)c1)CCCC2` was tested, and the Potency was inconclusive: 84.9 µM [inhibitor, single point].
With `CN(Cc1ccccc1)C(=O)C1CCN(S(=O)(=O)c2ccc3nc4c(c(C(=O)O)c3c2)CCCC4)CC1` the Potency was inconclusive: 84.9 µM [inhibitor, single point] and inconclusive: 75.7 µM [inhibitor, single point].
In the case of `O=C(O)c1ccc(-n2[nH]c3c(c2=O)CCCC3)cc1`, the Potency is reported as inconclusive: 95.3 µM [inhibitor, single point].
`CC(=O)c1ccc(S(=O)(=O)Nc2ccc(-n3cnnn3)cc2)cc1` was tested, and the Potency was inconclusive: 84.9 µM [inhibitor, single point].
